The text below walks through data of publication PMC12136788.

The labels stand for the following.
B1: 117457482_117458510_5198_CDS_ENSMUSG00000038371_ENSMUST00000033058|mouse|control|control (ssRNA)
RNA: GGGAGUUCUACAGUCCGACGAUCUCUUGGCUCUUCCUUGAGGUCCGUGGUGACUUUUUCCCAUAGCUGGUGCCAUCUCUCAGGAGUUUGAUUCAAUUUAUGCUCCAAUUUUUCAAUUUCACUGAAAAGUCUCGUGAGGGCAUCCAACAGAGGAUUGAGCAUCA
B2: chr14:102368134:102368135:+_ENSG00000078304_ENST00000445439|hu_hu|hu_hu_hu_mus_True|48_78 (ssRNA)
RNA: GGGAGUUCUACAGUCCGACGAUCAAGAGGCUCCAUGAUCUUCACAAACUCUGAUGGUUCAAUGACAUCUAAAAUUUCUUCUAAUUCGUUUAAGAACAUUACUUCUUUUGGACUGUGAGUCUUUGGCCAGUAUUUGAGAAGUGCCAACAGAGGAUUGAGCAUCA
B3: chr2:113333244:113333245:+_ENSG00000125630_ENST00000417433|hu_mus|FALSE|FALSE (ssRNA)
RNA: GGGAGUUCUACAGUCCGACGAUCGGGAUCAAGUCAGAUGACAUCCAGUUUCACUUUGAUGUUCAUGGCUGCCAGCUCAGCUACAAAGUACCGGAAGACAUACGGCACAGAGACGGUGUCGAUGGUGUCACUGCGGCCACAGACCAACAGAGGAUUGAGCAUCA
B4: 10327494_10327614_699_CDS_ENSG00000054523_ENST00000377093|human|control|control (ssRNA)
RNA: GGGAGUUCUACAGUCCGACGAUCGGCUUUGUUCCCAGCAUCCAUGAGGUCAGCAAUGUCUGUGUAGGAAGUAACUGCCAACUUGGACAGAUCCUCCACAUAGGGUCCAAGAAGUGGGUGUUCACGCACACGCAAAUUACCCUUCAACAGAGGAUUGAGCAUCA
B5: chr11:87794392:87794393:-_ENSMUSG00000020483_ENSMUST00000020775|mus_hu|motif|central (ssRNA)
RNA: GGGAGUUCUACAGUCCGACGAUCCCCCACCCUCCGCCCCAAGCCAUAGAAUCACAGUUCAGUGGAAUAUUCUCCCUGGUACGGGAUCAAUCCCUCCACCUUCCUUCCUACCCCUUUUUCCUUGACAAUCCCAACACUGUCCCCCAACAGAGGAUUGAGCAUCA
B6: chr14:76904430:76904431:+_ENSMUSG00000022010_ENSMUST00000022587|mus_mus|mus_mus_mus_hu_True|48_78 (ssRNA)
RNA: GGGAGUUCUACAGUCCGACGAUCUGCAGCCAAAAACACCCUCGUGGAAAAAAAGAGCAAGCUCCAGCAGCCUUGUAUAAGCUAGAUAAAACCGCCUGGCUUUCCGCAGCCCAGGGAGAAACAGAAAACGGCAGCCCUAAUUUACAACAGAGGAUUGAGCAUCA
B7: chr21:44329077:44329078:+_ENSG00000160194_ENST00000354250|hu_mus|FALSE|FALSE (ssRNA)
RNA: GGGAGUUCUACAGUCCGACGAUCCUCUCGUCCUGAAGACGGCUGUGGCAGCCUGAAUUUGGAGAGGUCCAGGUUCAGGUCCAGGAAGGUGUAUGUGUUGUAGUCAUGGUGCUGCAGGUUCUUGUAGGUGGUGGUGUCAGUCGGCAACAGAGGAUUGAGCAUCA
B8: chr19:55172109:55172110:-_ENSMUSG00000024978_ENSMUST00000061856|mus_mus|FALSE|FALSE (ssRNA)
RNA: GGGAGUUCUACAGUCCGACGAUCGUGUGUUUACAUCGGCCAAGGCUGUAUUCCGAUGAACUGGGCAGAUAAGAAACGUCUAUUGUGCCAACUGUCACUGAAGACUCCUCCAUGGCAGAACGUGCAAGUCCCAAACCAUGUGCUCAACAGAGGAUUGAGCAUCA
B9: chr2:26350769:26350770:+_ENSG00000084733_ENST00000264710|hu_mus|motif|central (ssRNA)
RNA: GGGAGUUCUACAGUCCGACGAUCGAUGUCUUCAGCUAAUGUGAGGAACGCCUUUUCGAUGUUUAUAUUUGCUUUUGCACGGGUCUCAAAAAACCUAAUACCAUGCUCCCUUGCAAUCUGUUCUCCUUUGCCUUUCGGUACAACCAACAGAGGAUUGAGCAUCA
B10: chr6:114281168:114281169:-_ENSG00000196591_ENST00000368632|hu_hu|hu_hu_hu_mus_True|68_98 (ssRNA)
RNA: GGGAGUUCUACAGUCCGACGAUCUUCCAUUUUUCGGUAUAAGCCAUAAUUUAGCAGCAAGUUAUGAGUCAUGCGGAUUCUAUGAGGCUUCAUGGGAUGACCCUGGCCAUAAUAAUAAUUGCCAAUAUCACCAUCAUAGUAGUACAACAGAGGAUUGAGCAUCA
B11: chr13:36049296:36049297:-_ENSG00000180660_ENST00000379919|hu_mus|motif|central (ssRNA)
RNA: GGGAGUUCUACAGUCCGACGAUCCCACGUUUGUUUAGCAGCGUUUUCCAAGGCCGAGUGGGGUUUGCCUUGAAACAGAUCGGAGUUCGGUAAGAAGUAAUGGGGACACCGCCGGCACUGCAGGCAUGAGAUGAGCUGCAGAAGCAACAGAGGAUUGAGCAUCA
B12: chrX:91780989:91780990:-_ENSMUSG00000025151_ENSMUST00000026142|mus_mus|FALSE|FALSE (ssRNA)
RNA: GGGAGUUCUACAGUCCGACGAUCCUCUCUAGAUAGCGUGUUUUGAAGGAACCUGAGGCUUCAGCCUCACUCAGGGAAAACUAUUGCAAAUGAUGAGCAGUAUCUGACAAUUUACUCAACCCAGAAGAAGCCAAUGGCACCGAACAACAGAGGAUUGAGCAUCA
B13: chr2:192257801:192257802:+_ENSG00000128641_ENST00000304164|hu_hu|motif|central (ssRNA)
RNA: GGGAGUUCUACAGUCCGACGAUCAUAUAUCUUCUGAAUGAGAGUGGCCAAGUCCUCCAGGCGUUGCUUCCUCAGGUCUUCGGAUUUGAAUAAUGUUCUUGGGUUUCGGAUGAAUAUCUUUGAUCUACCAAAGGAGUAUUCUUCCAACAGAGGAUUGAGCAUCA
B14: chr15:76910149:76910150:-_ENSMUSG00000033565_ENSMUST00000166610|mus_mus|motif|central (ssRNA)
RNA: GGGAGUUCUACAGUCCGACGAUCAAUGCUGACGGAGGGAAGUCAUGUCUCUUAGGGGAAAGGAUCAGCUCAUCACUCGCGGUAUAACGCAGCCAAACGGGCUGCCCAACAAGCACGCACACAAGAAAUACUGUUAACAGAAAACAACAGAGGAUUGAGCAUCA
B15: chr1:114340281:114340282:-_ENSG00000081019_ENST00000261441|hu_mus|FALSE|FALSE (ssRNA)
RNA: GGGAGUUCUACAGUCCGACGAUCGUAUGCAUGAAGGACAAGAGCACCCCCAUUGGACUGGUGUUCUUCGUGAAUAAAGUUGCUAAAUUUAGUACCUGUUUUUAAGAAAUUUCUGCGAAUAGAAUGUUCUUGGUGCGUUGUAAACAACAGAGGAUUGAGCAUCA
B16: chr11:69480760:69480761:-_ENSMUSG00000059796_ENSMUST00000163666|mus_mus|FALSE|FALSE (ssRNA)
RNA: GGGAGUUCUACAGUCCGACGAUCUGGGGGGGGAAGGAGACGGCGCCUGGGGCAGAGCCUACCCCAAAGAAAAGGGUGUCUAAAAUGUUCACGGUUCCUUCUUUUUGCCUCAAAAAGUGACAUUUAUUCAUAGAGAAAAAAAACCAACAGAGGAUUGAGCAUCA
B17: chr3:72423869:72423870:-_ENSG00000163602_ENST00000477973|hu_hu|FALSE|FALSE (ssRNA)
RNA: GGGAGUUCUACAGUCCGACGAUCGCAGAAUUCAUAAAUAGACAUUUCUAUUUAAAGCAGGAAAAUGAUAAAGUGGCUUCUAAUAACAUAGUCGUGCACAUGCCAGUAACAGGAAUAUAUUAACAUCUUUUAUUUGCUAGACAACAACAGAGGAUUGAGCAUCA
B18: 5037140_5048872_172_CDS_ENSMUSG00000022536_ENSMUST00000115844|mouse|control|control (ssRNA)
RNA: GGGAGUUCUACAGUCCGACGAUCGAUCCAGGCAUGAUCUUCUGUUCCAAAAAACUUCACAAAGAAGCAUUUCUUUCCACGUGGUUUCUUUAAGUCCUUGGGUGGAUUAACAAUCUUUCCUGGCCAGGGAGGAUACCGGCCCAGCAACAGAGGAUUGAGCAUCA
B19: 126671170_126673164_2480_3pUTR_ENSMUSG00000074657_ENSMUST00000099172|mouse|control|control (ssRNA)
RNA: GGGAGUUCUACAGUCCGACGAUCGGGCAACUGUCUCCUCCAGCCCCUUGAGGUCCUGCUUGGACUGCUCAUGUCGCUCAUACAGAAAUGUCAGCUCCUGGAGCUUGGCGCUCUUCUCGUUCUCUUCAUUCUUCAGCCUCUCAUCAACAGAGGAUUGAGCAUCA
B20: 48026277_48026397_876_CDS_ENSG00000116062_ENST00000540021|human|control|control (ssRNA)
RNA: GGGAGUUCUACAGUCCGACGAUCGAUGACAAGAUCAAAGUUCUGAGACUUAAUCUGCCACCACUUCCUCAUCCCAGGAGUACAAGAAUUGAGGAAAUCCUCAGGCACAUAGAGUGUAGAUGCAUCAAAAUCGGGGUGAUCAGGCAACAGAGGAUUGAGCAUCA
B21: chr2:155483634:155483635:-_ENSMUSG00000038324_ENSMUST00000041059|perfect_dup|motif|central (ssRNA)
RNA: GGGAGUUCUACAGUCCGACGAUCGGUGACAGCCAGAAUCCGGCAGAAAUUAGCGAGCUGCUGCUGAUCGAAAUUGGAUACGGAGGAACUCAGAUUGGGGACUUCAUCUAGUCGGAUCAUUUCCUUUUUAACACCCAAAAUAUCCAACAGAGGAUUGAGCAUCA
B22: 32422456_32422890_417_3pUTR_ENSG00000152683_ENST00000406369|human|control|control (ssRNA)
RNA: GGGAGUUCUACAGUCCGACGAUCUUCAAUGAGCAUAUAUGUAAUACAAAGAGCAAAUGCUCCAGCAAGAUCAAUCAAAACAAAUGGAUUCAUUCGGGGAAGGAAGAUACUGCUAAGUCCCGGAAUAAUUCCACACAAGCUUCGCAACAGAGGAUUGAGCAUCA

The list shows a part of the results.

The test has as its target T1, UNK ZnF1-3 (human, UniProt Q9C0B0 31-174).
T1 sequence: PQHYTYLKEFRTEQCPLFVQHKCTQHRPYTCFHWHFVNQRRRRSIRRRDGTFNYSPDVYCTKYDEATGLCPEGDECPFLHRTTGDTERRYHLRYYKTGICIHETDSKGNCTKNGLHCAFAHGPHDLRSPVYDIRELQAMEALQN
The experiment in a line: nsRBNS (natural sequence RNA bind-n-seq); RBNS binding buffer (assumed for nsRBNS): 25 mM Tris pH 7.5, 150 mM KCl, 3 mM MgCl2, 0.01% Triton X-100, 500 ug/ml BSA, 20 U/ml SUPERase-In, 4 C; UNK is unkempt and MSI1 is Musashi-1; names of the RNAs are library labels; protein concentration not given here; high values mean tight binding.
Molecule B1 returned a binding signal of 0.522 enrichment R.

B2 gave a binding signal of 0.743 enrichment R.

In turn, B3 came in with a binding signal of 1.02 enrichment R.

B4 yielded a binding signal of 0.706 enrichment R.

For the molecule B5, the binding signal was 1.23 enrichment R.

As for B6, the binding signal was 2.22 enrichment R.

Take B7: the binding signal came to 0.911 enrichment R.

With B8, the binding signal was found to be 0.84 enrichment R.

Turning to B9, the binding signal came to 0.639 enrichment R.

The molecule B10 had a binding signal of 1.05 enrichment R.

Regarding B11, the binding signal turned out to be 1.34 enrichment R.

For B12, the binding signal was determined as 1.31 enrichment R.

Take B13: the binding signal amounted to 0.775 enrichment R.

In the case of B14, the binding signal is 1.88 enrichment R.

B15 registered a binding signal of 0.946 enrichment R.

Molecule B16 displayed a binding signal of 2.12 enrichment R.

Molecule B17 gave a binding signal of 1.31 enrichment R.

Regarding B18, the binding signal was 0.853 enrichment R.

In the case of B19, the binding signal turned out to be 0.61 enrichment R.

The molecule B20 yielded a binding signal of 1.8 enrichment R.

B21: the binding signal came out at 1.28 enrichment R.

B22 showed a binding signal of 1.56 enrichment R.
